Source: the antibiotic and cytotoxicity screens of Wong et al. (2023)
Some of the results follow.

Key:
HSkMC = human skeletal muscle cells; assay: cytotoxicity call (relative viability < 0.9); details: 10 µM
HepG2 = assay: cytotoxicity call (relative viability < 0.9); details: 10 µM
S. aureus RN4220 = assay: growth inhibition call (relative growth <= 0.2); details: 50 µM

C[C@H](CO)N1C[C@H](C)[C@H](CN(C)Cc2ccncc2)Oc2c(NS(=O)(=O)c3ccc(F)cc3)cccc2C1=O
inactive: cytotoxicity call (HSkMC) | cytotoxicity call (HepG2) | growth inhibition call (S. aureus RN4220)

O=C(C[C@H]1C[C@H]2c3cc(NS(=O)(=O)c4ccc(F)cc4)ccc3O[C@H]2[C@@H](CO)O1)NCc1cccc(F)c1
inactive: cytotoxicity call (HSkMC) | cytotoxicity call (HepG2) | growth inhibition call (S. aureus RN4220)

C[C@@H]1CN([C@H](C)CO)C(=O)Cc2cc(NS(C)(=O)=O)ccc2O[C@@H]1CN(C)C
inactive: cytotoxicity call (HSkMC) | cytotoxicity call (HepG2) | growth inhibition call (S. aureus RN4220)
